The source of these data is publication PMC13083723 (Patterns, 2026).

Hit rate of the full screen: of about 5,400 compounds, about 190 (3.5%) showed an effect of 50% or more. The list shows a part of the results. Non-standard residues stand in square brackets, D forms with d. Residues, ends and D or L forms follow the SMILES beside them. NMeF = CN[C@@H](Cc1ccccc1)C(=O)O

The test system of the assay is Vero-E6. In words: primary screen, phospholipidosis by LipidTOX staining; higher = more effect of the substance. The settings on record: 10 µM. An outline of the steps: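 Single-concentration screen at 10 μM, with DMSO 0.1 v/v % and amiodarone 10 μM as controls. Read-out is LipidTOX Red phospholipid staining, which tolerates aldehyde fixation, in Vero-E6 cells.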
In the case of `O=C1NC(O)CCN1[C@@H]1O[C@H](CO)[C@@H](O)[C@H]1O` (some centres unmarked), the result_ITMP is given as -8.11%.

With `OCc1ccccc1O[C@@H]1O[C@H](CO)[C@@H](O)[C@H](O)[C@H]1O`, the result_ITMP is given as -0.4%.

`O=C(O)[C@H]1CN(C/C=C/P(=O)(O)O)CCN1`: the result_ITMP is -1.39%.

Consider `COc1ccc(NS(=O)(=O)c2ccc(I)cc2)cc1N1CCN(C)CC1`, for which the result_ITMP was found to be 16.4%.

With `O=C1CCCC2C3CC(CN12)[C@@H]1CCCCN1C3` (some centres unmarked), the result_ITMP is recorded as -11.1%.

On to `CSCC[C@H](NC(=O)[C@H](CC(C)C)NC(=O)[C@@H](Cc1c[nH]c2ccccc12)NC(=O)[C@H](Cc1ccccc1)N(C)C(=O)[C@@H](Cc1c[nH]c2ccccc12)NC(=O)[C@@H](N)CCCN=C(N)N)C(N)=O` (H-R[dW][NMeF][dW]LM-NH2), for which the result_ITMP is -1.85%.

`C=CC1=C(C(=O)O)N2C(=O)[C@@H](NC(=O)/C(=N\O)c3csc(N)n3)[C@H]2SC1`: the result_ITMP is reported as -6.59%.

With `CN1C(CCl)Nc2cc(Cl)c(S(N)(=O)=O)cc2S1(=O)=O` (centres unmarked), the result_ITMP is -4.62%.

As to `Cc1cn([C@H]2C=C[C@@H](CO)O2)c(=O)[nH]c1=O`, the result_ITMP is -4.41%.

Regarding `CC(=O)NS(=O)(=O)c1ccc(N)cc1`, the result_ITMP is recorded as -2.63%.

On to `CCOC(=O)c1ccc(-n2cc(Cc3cnc(OCC)nc3)c(=O)nc2SCc2ccc(F)cc2)cc1`, for which the result_ITMP is -1.15%.

In the case of `O=P([O-])(O)C(Cl)(Cl)P(=O)([O-])O`, the result_ITMP was -2.27%.

`C=C1CC[C@@H]2[C@](C)(CO)[C@H](O)CC[C@@]2(C)[C@@H]1C/C=C1/C(=O)OC[C@H]1O`: the result_ITMP amounted to 7.42%.

Turning to `CC(=O)c1cc2c(o1)C(=O)c1ccccc1C2=O`, the result_ITMP was -0.05%.

Consider `C=C1C(=O)O[C@@H]2[C@H]3C(C)=CC[C@@]34O[C@@]4(C)CC[C@@H]12`, for which the result_ITMP was found to be 2.15%.

Take `CCN(CC)CC(=O)Nc1c(C)cccc1C`: the result_ITMP is -4.06%.

As to `CC(C)(O)c1coc(S(=O)(=O)NC(=O)Nc2c3c(cc4c2CCC4)CCC3)c1`, the result_ITMP was -0.5%.

`CO[C@H]1/C=C/O[C@@]2(C)Oc3c(C)c(O)c4c(O)c(cc([O-])c4c3C2=O)NC(=O)/C(C)=C\C=C\C(C)[C@H](O)[C@@H](C)[C@@H](O)[C@@H](C)[C@H](OC(C)=O)[C@@H]1C` (some centres unmarked): the result_ITMP is -1.11%.

Take `O=C(N[C@H]1CN2CCC1CC2)c1cnc2ccsc2c1O`: the result_ITMP was -2.55%.

`c1ccc2c(CC3=NCCN3)cccc2c1`: the result_ITMP was determined as 0.03%.

Regarding `CC(=O)OCC(=O)[C@@]12OC(C)(C)O[C@@H]1C[C@H]1[C@@H]3C[C@H](F)C4=CC(=O)C=C[C@]4(C)[C@@]3(F)[C@@H](O)C[C@@]12C`, the result_ITMP is listed as -0.63%.

In the case of `Nc1ncnc2c1ncn2[C@H]1O[C@@H](C(=O)N2CCN(CC(=O)Nc3cccc4c3CNC4=O)CC2)[C@H](O)[C@@H]1O`, the result_ITMP is on record as -2%.

In the case of `CC1(C)C(/C=C/C=C/C=C/C=C2/N(CCCCS(=O)(=O)[O-])c3ccc4ccccc4c3C2(C)C)=[N+](CCCCS(=O)(=O)[O-])c2ccc3ccccc3c21`, the result_ITMP is reported as -0.75%.

`CC(C)C(=O)SCCCCC[C@H](NC(=O)OC(C)(C)C)C(=O)NC12CC3CC(CC(C3)C1)C2`: the result_ITMP came out at 6.93%.

On to `CCOc1ccc(-n2c([C@@H](C)N(Cc3cccnc3)C(=O)Cc3ccc(OC(F)(F)F)cc3)nc3ncccc3c2=O)cc1`, for which the result_ITMP is 0.18%.

For `NC(=O)NCCC[C@H](N)C(=O)O`, the result_ITMP is -2.47%.

Take `O=c1oc2c(O)c(O)cc3c(=O)oc4c(O)c(O)cc1c4c23`: the result_ITMP amounted to 4.42%.

As for `COc1ccc(/C=C/C(=O)/C=C(O)/C=C/c2ccc(OC)c(OC)c2)cc1OC`, the result_ITMP is -0.99%.

For `CN(c1ccccc1CNc1nc(Nc2ccc3c(c2)CC(=O)N3)ncc1C(F)(F)F)S(C)(=O)=O`, the result_ITMP turned out to be 15.3%.

`CCN(CC)C(=O)N[C@H]1C=C2c3cccc4[nH]cc(c34)C[C@H]2N(C)C1`: the result_ITMP worked out at 26.1%.

Consider `O=C1NS(=O)(=O)c2ccccc21`, for which the result_ITMP was -3.49%.

For the compound `NS(=O)(=O)c1cc2c(cc1Cl)NC(C1CC3C=CC1C3)NS2(=O)=O` (centres unmarked), the result_ITMP is recorded as -2.34%.

Regarding `CC(C)COc1ccc(CNC(=O)N(Cc2ccc(F)cc2)C2CCN(C)CC2)cc1`, the result_ITMP stood at 48.6%.

For the compound `CC(=O)CC(c1ccccc1)c1c(O)c2ccccc2oc1=O` (centres unmarked), the result_ITMP was -1.2%.

`c1coc(CNc2ncnc3nc[nH]c23)c1`: the result_ITMP was -4.92%.

As to `Nc1nc(S)c2nc[nH]c2n1`, the result_ITMP came out at 26.6%.

As to `C[C@H]1Oc2cc(cnc2N)-c2c(nn(C)c2C#N)CN(C)C(=O)c2ccc(F)cc21` [R4A_0001637_001 / SPE_K99879819], the result_ITMP is -2.56%.

As for `CC(CNS(=O)(=O)C(C)C)c1ccc(-c2ccc(C#N)cc2)cc1` (centres unmarked), the result_ITMP is given as 2.07%.

On to `O=C(c1ccc(Cl)o1)N1CC2CNCC2C1` (centres unmarked), for which the result_ITMP is reported as 0.39%.

On to `O=C(Nc1ccncc1)C(=O)c1cn(Cc2ccc(Cl)cc2)c2ccccc12`, for which the result_ITMP is on record as 0.55%.

On to `CCCCCCCCCCCC(=O)OCC(O)CO` (centres unmarked), for which the result_ITMP is -0.78%.

For `Nc1nc(N)c2nc(CNc3ccc(C(=O)N[C@@H](CCC(=O)O)C(=O)O)cc3)cnc2n1`, the result_ITMP is -13%.

With `N[C@@H](CSCC(=O)O)C(=O)O`, the result_ITMP is on record as -3.83%.

Take `O=C(O)Cc1ccc(OCCNC[C@H](O)c2ccccc2)cc1`: the result_ITMP is -2.13%.

With `OCCc1ccc(OCCn2ccnc2)cc1`, the result_ITMP amounted to 17.7%.

In the case of `CC(C)C[C@@H](C(=O)N[C@@H](Cc1ccc(OCc2ccccc2)cc1)C(=O)NC(C)(C)C)N(C)Cc1ccc(C(C)(C)C)cc1`, the result_ITMP was -1.65%.

For the compound `CCCCN(Cc1ccc(C(=O)NO)cc1)C(=O)Nc1ccccc1`, the result_ITMP was -9.88%.

Regarding `COC(=O)N[C@H](C(=O)N1CCC[C@H]1c1ncc(-c2ccc(-c3ccc(-c4cnc([C@@H]5CCCN5C(=O)[C@@H](NC(=O)OC)C(C)C)[nH]4)cc3)cc2)[nH]1)C(C)C`, the result_ITMP is 1.1%.

For `CCCCCN(C)CCC(O)(P(=O)([O-])O)P(=O)(O)O`, the result_ITMP worked out at 3.23%.

Regarding `CC(C)(S)C(=O)N[C@@H](CS)C(=O)O`, the result_ITMP was -4.67%.

For `CC1=C(C(=O)Nc2cc3cn[nH]c3cc2F)C(c2ccc(C(F)(F)F)cc2)CC(=O)N1` (centres unmarked), the result_ITMP came out at 4.82%.

Regarding `CNC(=O)c1ccccc1Nc1nc(Nc2ccc(N3CCOCC3)cc2OC)ncc1Cl`, the result_ITMP is given as 3.78%.

For the compound `NCC(CC(=O)O)c1ccccc1` (centres unmarked), the result_ITMP came to 3.25%.

In the case of `O=C(O)CCCNC(=O)c1cccnc1`, the result_ITMP was -2.5%.

Turning to `NCC(O)(CS(=O)(=O)O)c1ccc(Cl)cc1` (centres unmarked), the result_ITMP is -4.58%.

Consider `COc1cc(/C=C/c2ccc(O)cc2)cc(OC)c1`, for which the result_ITMP is 11.9%.

As to `CC[C@H](NC(=O)c1c(C)c(-c2ccccc2)nc2ccccc12)c1ccccc1`, the result_ITMP is -1.6%.

With `CCOC(=O)c1ncn2c1CN(C)C(=O)c1cc(F)ccc1-2`, the result_ITMP came out at 4.71%.

As to `O=C(COc1ccc(Cl)cc1)N[C@H]1CC[C@H](NC(=O)COc2ccc(Cl)cc2)CC1`, the result_ITMP is -2.2%.

As to `Cc1cc(C)c2c(c1)[C@@H](N(Cc1cc(C(F)(F)F)cc(C(F)(F)F)c1)c1nnn(C)n1)CCCN2C[C@H]1CC[C@H](C(=O)O)CC1`, the result_ITMP is given as -10.9%.

`Cn1c(C#N)ccc1-c1ccc2c(c1)C(C)(C)OC(=S)N2`: the result_ITMP is recorded as -1.41%.

Take `c1cc2c(cc1[C@H]1OC[C@H]3[C@@H]1CO[C@@H]3c1ccc3c(c1)OCO3)OCO2`: the result_ITMP is -6.11%.

For `CCOc1ccc(Cc2cc([C@]34OC[C@](CO)(O3)[C@@H](O)[C@H](O)[C@H]4O)ccc2Cl)cc1`, the result_ITMP is listed as -0.06%.

In the case of `COc1cc(C(C)=O)ccc1OCCCN1CCC(c2noc3cc(F)ccc23)CC1`, the result_ITMP is reported as -0.01%.

Turning to `CCCC1O[C@@H]2C[C@H]3[C@@H]4CCC5=CC(=O)C=C[C@]5(C)[C@H]4[C@@H](O)C[C@]3(C)[C@]2(C(=O)CO)O1` (some centres unmarked), the result_ITMP is listed as -5.56%.

Consider `CNC(=O)[C@@H](c1ccccc1)N1CCc2cc(OC)c(OC)cc2[C@@H]1CCc1ccc(C(F)(F)F)cc1`, for which the result_ITMP turned out to be 1.25%.

Take `N=C(N)NC(=O)c1cnccn1`: the result_ITMP is -1.44%.

With `CC(=O)NC(Cc1ccc(O)cc1)C(=O)O` (centres unmarked), the result_ITMP was -5.32%.

Take `COc1ccc(/C=C\c2cc(OC)c(OC)c(OC)c2)cc1O`: the result_ITMP came out at 8.42%.

`CN1c2c(oc(=O)n(-c3ccccn3)c2=O)-c2ccccc2S1(=O)=O`: the result_ITMP is recorded as -0.47%.

On to `Cc1cccn2c(=O)c(/C=C(\C#N)c3nc4ccccc4s3)c(Oc3ccc(F)cc3)nc12`, for which the result_ITMP is recorded as -3.48%.

For `COc1ccc(-c2sc(NC(=O)C(C)(C)C)nc2C)cc1S(=O)(=O)Nc1ccc(O)cc1`, the result_ITMP is recorded as 9.51%.

On to `c1cc(-c2cnn3cc(-c4ccc(N5CCNCC5)cc4)cnc23)c2cccnc2c1`, for which the result_ITMP is listed as -14.8%.

`COc1cccc(-c2ccc([C@@H](Oc3cc(-c4ccc(C[C@H](N)C(=O)O)cc4)nc(N)n3)C(F)(F)F)cc2)c1`: the result_ITMP is listed as -3.18%.

On to `c1ccc(CCCCN2CCC(c3ccccc3)CC2)cc1`, for which the result_ITMP was determined as 0.01%.

Turning to `COC(=O)c1c(C)[nH]c(C)c1C(=O)c1ccccc1Cc1ccccc1`, the result_ITMP is recorded as 0.65%.

Turning to `CC(C)n1nnc2cc(C(=O)O)ccc21`, the result_ITMP was -1.84%.

On to `O=C(O)Cn1c2c(c3cc(F)ccc31)CN(C(=O)c1cccc3ccccc13)CC2`, for which the result_ITMP is -2.57%.

For `CC(C)(CCCCCC(O)CCCCCC(C)(C)C(=O)O)C(=O)O`, the result_ITMP is -2.73%.

For `C=C(C)[C@H]1CN[C@H](C(=O)O)[C@H]1CC(=O)O`, the result_ITMP was -8%.

`O=C(O)C[CH2][Ge](=[O])[O][Ge](=[O])[CH2]CC(=O)O`: the result_ITMP is given as -3.6%.

As for `COc1ccc(S(=O)(=O)Nc2c(C)cc(C)cc2C)cc1`, the result_ITMP is given as -4.15%.

`Oc1ccc(-c2c(-c3ccccc3)nn3c(C(F)(F)F)cc(C(F)(F)F)nc23)cc1`: the result_ITMP is listed as -1.36%.

Turning to `CC(C)NCC(O)c1ccc(O)c(O)c1` (centres unmarked), the result_ITMP was -2.95%.

For `CS(=O)(=O)N1CCN(Cc2cc3nc(-c4cccc5[nH]ncc45)nc(N4CCOCC4)c3s2)CC1`, the result_ITMP is 9.24%.

Turning to `CC(C)(C)NC(=O)[C@@H]1C[C@@H]2CCCC[C@@H]2CN1C[C@@H](O)[C@H](Cc1ccccc1)NC(=O)[C@H](CC(N)=O)NC(=O)c1ccc2ccccc2n1`, the result_ITMP is -3.77%.
